According to article PMC11984960:
These are yes or no findings as the source states them, for the method shown. Binding seen in cells or lysates may run through a third protein. Some binding calls cover weakened binding; strength is not graded here. Sequences can lack the tags named with a protein.

The chains behind the UniProt entries cited, without tags or fusion partners.
UniProt Q96ST8: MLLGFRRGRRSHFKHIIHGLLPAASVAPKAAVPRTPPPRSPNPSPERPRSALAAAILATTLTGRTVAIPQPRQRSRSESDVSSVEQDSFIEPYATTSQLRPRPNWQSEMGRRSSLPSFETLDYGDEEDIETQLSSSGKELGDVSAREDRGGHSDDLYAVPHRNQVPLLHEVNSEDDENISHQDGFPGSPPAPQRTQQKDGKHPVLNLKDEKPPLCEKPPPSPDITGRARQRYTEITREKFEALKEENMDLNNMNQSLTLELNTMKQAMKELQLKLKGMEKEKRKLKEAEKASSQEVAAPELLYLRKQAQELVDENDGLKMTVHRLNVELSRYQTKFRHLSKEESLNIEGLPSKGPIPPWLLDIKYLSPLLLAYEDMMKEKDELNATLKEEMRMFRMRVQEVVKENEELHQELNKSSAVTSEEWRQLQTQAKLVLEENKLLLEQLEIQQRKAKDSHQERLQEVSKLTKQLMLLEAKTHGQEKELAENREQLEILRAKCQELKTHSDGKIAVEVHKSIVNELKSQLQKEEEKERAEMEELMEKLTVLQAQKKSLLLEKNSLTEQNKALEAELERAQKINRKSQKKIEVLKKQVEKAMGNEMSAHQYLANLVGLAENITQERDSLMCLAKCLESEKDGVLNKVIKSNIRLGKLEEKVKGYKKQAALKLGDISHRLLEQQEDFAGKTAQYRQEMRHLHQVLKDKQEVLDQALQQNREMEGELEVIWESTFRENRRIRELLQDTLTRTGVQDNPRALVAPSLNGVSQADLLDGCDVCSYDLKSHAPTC
UniProt Q9HBI5: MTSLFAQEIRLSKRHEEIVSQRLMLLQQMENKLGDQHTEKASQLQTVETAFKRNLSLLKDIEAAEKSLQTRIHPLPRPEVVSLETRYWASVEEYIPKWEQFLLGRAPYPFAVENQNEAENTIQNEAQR

T1: N-terminally HA-tagged FGFR1OP (UniProt O95684)
T1 sequence: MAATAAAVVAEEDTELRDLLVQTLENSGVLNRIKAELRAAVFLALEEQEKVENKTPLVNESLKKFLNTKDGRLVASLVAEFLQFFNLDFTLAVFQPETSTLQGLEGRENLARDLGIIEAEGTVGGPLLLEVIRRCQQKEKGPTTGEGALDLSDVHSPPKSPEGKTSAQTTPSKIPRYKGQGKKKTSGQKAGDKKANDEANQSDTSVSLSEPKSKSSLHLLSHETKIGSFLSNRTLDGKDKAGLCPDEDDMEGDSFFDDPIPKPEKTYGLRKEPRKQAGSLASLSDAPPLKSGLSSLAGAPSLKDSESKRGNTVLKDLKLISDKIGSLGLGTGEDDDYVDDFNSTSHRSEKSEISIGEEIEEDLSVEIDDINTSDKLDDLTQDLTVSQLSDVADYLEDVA

B1: N-terminally MYC-tagged CEP350 fragment (2470–2836 a.a.) (domain or fragment, UniProt Q5VT06 2470-2836)
chain: RSDVEHEQQVTESPSLASVPTADELFDFHIGDRVLIGNVQPGILRFKGETSFAKGFWAGVELDKPEGNNNGTYDGIAYFECKEKHGIFAPPQKISHIPENFDDYVDINEDEDCYSDERYQCYNQEQNDTEGPKDREKDVSEYFYEKSLPSVNDIEASVNRSRSLKIETDNVQDISGVLEAHVHQQSSVDSQISSKENKDLISDATEKVSIAAEDDTLDNTFSEELEKQQQFTEEEDNLYAEASEKLCTPLLDLLTREKNQLEAQLKSSLNEEKKSKQQLEKISLLTDSLLKVFVKDTVNQLQQIKKTRDEKIQLSNQELLGDDQKKVTPQDLSQNVEEQSPSISGCFLSSELEDEKEEISSPDMCPR

Key:
[1] = molecular target: N-terminally HA-tagged CEP89 (human) (UniProt Q96ST8); experiment: pull-down; in vitro binding assay: HA-tagged and MYC-tagged proteins co-translated in reticulocyte lysate, captured by HA-agarose beads; 25 mM HEPES-NaOH pH 7.5, 500 mM NaCl, 1 mM CaCl2, 0.1% Triton X-100; 2 hr at 4°C; immunoblot
[2] = molecular target: N-terminally HA-tagged CEP89 (human) (UniProt Q96ST8); experiment: pull-down; in vitro binding assay by the original protocol: HA-tagged and MYC-tagged proteins translated in separate reactions, not co-translated; captured by HA-agarose beads
[3] = molecular target: T1, N-terminally HA-tagged FGFR1OP; experiment: pull-down; in vitro binding assay: HA-tagged and MYC-tagged proteins co-translated in reticulocyte lysate, captured by HA-agarose beads; 25 mM HEPES-NaOH pH 7.5, 500 mM NaCl, 1 mM CaCl2, 0.1% Triton X-100; 2 hr at 4°C; immunoblot
[4] = molecular target: N-terminally HA-tagged CEP15 (human) (UniProt Q9HBI5); experiment: as above
[5] = molecular target: T1, N-terminally HA-tagged FGFR1OP; experiment: pull-down; in vitro binding assay by the original protocol: HA-tagged and MYC-tagged proteins translated in separate reactions, not co-translated; captured by HA-agarose beads
[6] = molecular target: N-terminally HA-tagged CEP15 (human) (UniProt Q9HBI5); experiment: as above

Molecule	binding [1]	binding [2]	binding [3]	binding [4]	binding [5]	binding [6]
N-terminally MYC-tagged CEP15 (from UniProt Q9HBI5 1-128)	binds	binds				
B1	no binding	no binding	binds	no binding	binds	no binding
